Measurements from the supplement of paper PMC12645437, “Orthogonal IMiD-Degron Pairs Induce Selective Protein Degradation in Cells” (ACS Chemical Biology, 2025).
The other results are listed elsewhere or left out.

Target: no compound (DMSO)
Test: log2 fold change of degron read counts, EGFP-low vs EGFP+ sorted cells; higher = lower degron-EGFP level without compound (poor expression or instability)
Conditions: compound: DMSO control; 18 h
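Note: jurkat cells carrying a lentiviral library of mutant zinc finger degrons fused to EGFP plus mCherry, mCherry+ cells FACS sorted, degron abundance counted by next-generation sequencing.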

Sequence	log2 fold change of degron read counts
FCCEICGREFTQKGNLLRHIKL	-2.84
FGCNQCGAHFTQKGNLLRHIKL	0.0462
LICPICGFNCTQKGNLLRHIKL	0.824
FNCDQCGATFTQKGNLLRHIKL	-2.74
FWCPQCGAAFTQKGNLLRHIKL	0.77
LRCNQCGFYCTQKGNLLRHIKL	1.31
FSCEICGAHFTQKGNLLRHIKL	-1.87
FHCEQCGAMFTQKGNLLRHIKL	-1.37
FSCPICGACFTQKGNLLRHIKL	-0.111
FYCNICGAFFTQKGNLLRHIKL	1.13
FSCPICGRGFTQKGNLLRHIKL	-0.805
FYCPICGHQFTQKGNLLRHIKL	0.0994
FRCPICGAIFTQKGNLLRHIKL	0.0815
FKCNVCGAWFTQKGNLLRHIKL	-0.212
FMCSVCGHDFTQKGNLLRHIKL	-0.766
FDCEICGHKFTQKGNLLRHIKL	-0.962

Sequence	log2 fold change of degron read counts
FFCDQCGACFTQKGNLLRHIKL	0.00723
FYCEICGHTFTQKGNLLRHIKL	-1.87
FTCPICGAIFTQKGNLLRHIKL	0.5
LTCPICGFHCTQKGNLLRHIKL	0.462
FVCDVCGANFTQKGNLLRHIKL	-1.57
FNCPICGHYFTQKGNLLRHIKL	0.379
FRCDVCGATFTQKGNLLRHIKL	-2.18
FACEICGAIFTQKGNLLRHIKL	-1.38
LSCEICGFMCTQKGNLLRHIKL	0.299
FHCEICGAYFTQKGNLLRHIKL	-1.52
LECEICGFRCTQKGNLLRHIKL	-1.75
FNCEICGRWFTQKGNLLRHIKL	-0.243
FECDVCGAVFTQKGNLLRHIKL	-2
FNCEICGREFTQKGNLLRHIKL	-2.59
FTCDVCGADFTQKGNLLRHIKL	-3.71
FHCNQCGRNFTQKGNLLRHIKL	-1.48
